Source: PubChem BioAssay AID1159614 (National Center for Advancing Translational Sciences (NCATS), 2016)
Out of some 45,000 compounds screened, about 65 (0.1%) were called active. Calls follow the shape of the dose curve; as a rule, active = well fitted activation curve with a large enough effect; inconclusive = small, poorly fitted or top-dose-only effect; inactive = no such curve, though single readings can be large or run the other way. The list shows a part of the results.

molecular target: Galactocerebrosidase (Homo sapiens) (UniProt P54803); experiment: A Novel Cell-Based Assay to Identify Small Molecules for B -Galactocerebrosidase; settings: 145M-Twi-hGALC-G270D cells (Twitcher mouse brain line with human GALC G270D), HMU-beta-Gal fluorescence, 48 h; series mostly up to 57.5 µM; activation: at the top concentration; also: 0% is about no effect; nearly all actives have a fitted effect of over 65% in size
Procedure, shortened: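 Brain-derived Twitcher mouse 145M-Twi cells stably expressing human GALC-G270D or wild-type GALC, treated live, then residual GALC activity read by fluorescence of HMU-b-Gal substrate (0.1 mM final) in citrate-phosphate buffer pH 5.2 with sodium taurocholate. Signal increase indicates enhancement.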

Sequence of UniProt P54803 (P54803 whole entry, looked up): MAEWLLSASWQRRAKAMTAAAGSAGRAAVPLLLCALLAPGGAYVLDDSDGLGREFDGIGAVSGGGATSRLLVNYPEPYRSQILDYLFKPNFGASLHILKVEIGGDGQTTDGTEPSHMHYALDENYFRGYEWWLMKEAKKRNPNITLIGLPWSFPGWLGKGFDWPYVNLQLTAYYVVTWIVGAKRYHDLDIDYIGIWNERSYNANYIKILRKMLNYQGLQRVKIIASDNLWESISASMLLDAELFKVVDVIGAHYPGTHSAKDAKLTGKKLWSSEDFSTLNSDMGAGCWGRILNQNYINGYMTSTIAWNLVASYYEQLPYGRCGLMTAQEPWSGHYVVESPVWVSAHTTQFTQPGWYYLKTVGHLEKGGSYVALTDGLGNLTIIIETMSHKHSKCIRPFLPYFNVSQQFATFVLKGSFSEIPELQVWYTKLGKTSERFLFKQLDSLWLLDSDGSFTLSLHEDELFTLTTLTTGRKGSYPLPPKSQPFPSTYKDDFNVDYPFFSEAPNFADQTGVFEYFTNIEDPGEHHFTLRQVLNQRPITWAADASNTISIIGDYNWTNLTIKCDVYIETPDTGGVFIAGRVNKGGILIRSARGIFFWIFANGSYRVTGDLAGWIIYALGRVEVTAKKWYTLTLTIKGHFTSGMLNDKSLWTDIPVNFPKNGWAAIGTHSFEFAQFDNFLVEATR

activation, inactive:
COc1ccc(C(=O)NCC(c2ccc3c(c2)OCO3)N2CCN(c3ccccc3F)CC2)cc1 (stereo not given) -10.9%, O=C(COc1ccc([N+](=O)[O-])cc1)Nc1nc2c(s1)CCCC2 -7.23%, COc1cccc(C2CC(=O)Nc3c2c(=O)[nH]c2nc4ccccc4n32)c1 (stereo not given) 0.803%, Cc1ccccc1-c1nnn(CC(=O)Nc2sc3c(c2C#N)CCC(C(C)(C)C)C3)n1 (stereo not given) -7.13%, CCOC(=O)c1c(NC(=O)c2nc(S(C)(=O)=O)ncc2Cl)sc(C(C)=O)c1C -20.7%, O=c1[nH]c2ccc(NCc3ccc(-c4ccc(Br)cc4)o3)cc2[nH]1 -7.21%, Cc1ccc2ncc(C(=O)Nc3ccc(OC(F)(F)F)cc3)c(=O)n2c1 -7.05%, COc1cc(OC)cc(-c2nc(-c3ccc4c(c3)[nH]c(=O)n4C)no2)c1 -21.9%, O=C1CCCc2cc(S(=O)(=O)N3CCCC(C(=O)NCc4ccc(Cl)cc4)C3)ccc2N1 (stereo not given) -26.5%, CCc1ccc(NC(=O)Cn2c(=O)n(CCCCC(=O)NCCc3ccc(Cl)cc3)c(=O)c3ccccc32)cc1 -11.1%, CCOC(=O)c1[nH]c2ccccc2c1NC(=O)c1ccc(Br)cc1 -14.9%, Cc1ccc2c(c1)N(CCCC(=O)Nc1cccc(C(F)(F)F)c1)C(=O)CO2 -29.8%, COc1cccc(CNC(=O)C2CCN(S(=O)(=O)c3ccc4c(c3)CCCN4C(C)=O)CC2)c1 -17.4%, COc1ccc2cc3c(N)nn(C(=O)c4ccc(OC)c(OC)c4)c3nc2c1 -22.2%, O=C(Nc1ccccc1C(F)(F)F)n1ncc2cc(Cl)ccc21 -10.3%, Cc1ccc(-c2cc(C(=O)NCc3ccccc3Cl)c3ccccc3n2)cc1C -11.8%, CCCCN1C(=O)C(O)(CC(=O)c2ccc(C(C)(C)C)cc2)c2ccccc21 (stereo not given) -18.3%, CCCCOc1cc(C(=O)NCCN(CC)CC)c2ccccc2n1 -3.93%, CCOc1ccc(-c2nc3c(c(SCC(=O)N4CCCCC4)n2)Cc2cccc(OC)c2O3)cc1 -9.81%, Cc1cccc(CSc2ncc(Cl)c(C(=O)Nc3nc4ccc(F)cc4s3)n2)c1 -8.8%, CCOc1ccc(NC(=O)c2ncoc2-c2ccco2)cc1 10.7%, COc1cc(NC(=O)Cn2cc(C(=O)c3ccc(F)cc3)c(=O)c3ccc(C)nc32)cc(OC)c1 -16.2%, Cc1ccc2nc3c(cc(C#N)c(=O)n3-c3nnc(SCc4ccccc4)s3)c(=O)n2c1 -9.96%, CCCn1c2ccccc2c2cnn(CC(=O)N3CCN(c4ccccc4)CC3)c(=O)c21 2.22%, O=C(Cn1c(=O)nc(-c2ccccc2)c2cc(Cl)ccc21)Nc1ccc(F)c(Cl)c1 -1.49%, CCOc1cc(C#N)c(NC(=O)Cn2nnc(-c3ccc(C)cc3)n2)cc1OCC -10.8%, CC(C)NC(=O)c1ccc(NC(=O)N2CCCCc3ccccc32)cc1 -2.08%, COc1cccc(CNC(=O)c2ccc(-n3c(C)cc4c3CCC(C)C4)cc2)c1 (stereo not given) -12%, Cc1nc(SCc2cccc(Cl)c2)nc2c1CCCC2 -14.3%, Cc1ccccc1Cn1c(SCc2ccc(C(=O)NC3CCCCC3)cc2)nc2ccncc21 -3.17%, CC(C)N(Cc1nc(-c2ccc(Cl)cc2)no1)C(=O)c1ccc(C(C)(C)C)cc1 1.65%, O=C(NCCc1csc(-c2cccnc2)n1)c1cccc(Cl)c1 -37.9%, CCOc1ccc(CC(=O)NCCc2sc3nc(-c4ccc(F)cc4)nn3c2C)cc1 -19.5%, Cc1c(C)n(CCN(C)C)c2ccc(C(=O)OCCN(C)C)cc12 -0.104%, Cc1ccc2ncc(C(=O)c3ccc(C)c(C)c3)c(S(=O)(=O)c3ccc(F)cc3)c2c1 -6.72%, Cc1cccc(NC(=O)CSc2nc3ccc(NC(=O)c4ccccc4)cc3s2)c1 -8.63%, COc1cccc(CN2C(=O)c3ccccc3Sc3ccc(C(=O)OCc4ccco4)cc32)c1 0.903%, CC1=C(c2ccc(Cl)cc2)S(=O)(=O)N=C1N1CCN(c2cccc(C)c2C)CC1 -0.255%, Cc1ccc(CNc2nnc(C)c3nnn(Cc4ccc(F)cc4)c23)cc1 -27.9%, Fc1ccc(NCc2ccccc2-c2nnc(-c3ccccc3Cl)o2)cc1 -18.8%, CC(=O)N1c2ccc(S(=O)(=O)N3CCCCCC3)cc2CC1C(=O)NCc1cccc(C)c1 (stereo not given) -14.6%, COc1cc(NC(=O)Cn2c(=O)cc(C)c3c(C)nn(-c4ccc(C)cc4)c32)cc(OC)c1 -8.53%, CCOc1ccc(-c2cc3nc(C4CCN(C(=O)OC(C)(C)C)CC4)c(C(=O)Nc4cccc(CC)c4)cn3n2)cc1 -14.3%, Cc1ccc(-n2ncc3c(NCc4ccccc4)ncnc32)cc1Cl -15.1%, CCSc1nc2n(n1)C(c1ccc(Cl)cc1Cl)C(C(=O)Nc1ccccc1C)=C(C)N2 (stereo not given) -14.8%, CC(C)(C)c1ccc(-c2nc(NC(=O)CSc3ncnc4sc5c(c34)CCCC5)ns2)cc1 -5.59%, CCCCOc1ccc(C(=O)N(Cc2ccc(N(C)C)cc2)Cc2ccco2)cc1 -15.7%, Cc1ccc(-n2ccn(CC(=O)NCCc3ccccc3)c(=O)c2=O)cc1C -15.4%, COc1ccc(NC(=O)CN(C)S(=O)(=O)c2ccc3c(c2)CCCN3C(C)=O)cc1 -1.78%, CCc1ccc(NC(=O)CSc2nccn2-c2ccc(F)cc2)cc1 -4.63%, COc1ccc(N2CC(NC(=O)/C=C\c3ccc4c(c3)OCO4)CC2=O)cc1OC (stereo not given) -0.555%, COc1ccccc1NC(=O)CSc1nncn2c1cc1sccc12 -3.73%, CCOCCCNC(=O)C(c1ccccc1)N(Cc1ccc2c(c1)OCO2)C(=O)c1ccc(NC(C)=O)cc1 (stereo not given) -3.96%, Cc1ccccc1CNC(=O)c1ccc2nc(SCc3ccc(F)cc3)n(C)c2c1 -13.5%, CCc1ccccc1NC(=O)Cn1cc(S(=O)(=O)N2CCCC2)c(S(=O)(=O)N2CCCC2)c1 -7.7%, O=C(c1ccco1)N(Cc1cccnc1)c1nc2c(F)cc(F)cc2s1 -14.9%, O=C(NCc1ccc2c(c1)OCO2)c1ccc2c(c1)N(Cc1ccccc1F)C(=O)c1ccccc1S2 -13.2%, CCc1ccccc1NC(=O)CN(c1ccccc1)S(=O)(=O)c1ccsc1C(=O)OC 7.49%, Cc1ccc2cccc(NC(=O)c3ccc(OC(C)C)cc3)c2n1 -11.4%, CCC(=O)C1=C(c2ccc(F)cc2)N(C(=O)CC)n2cnnc2S1 -25.9%, Cc1ccccc1CN1C(=O)c2ccccc2S(=O)c2ccc(C(=O)NCc3ccc(Cl)cc3)cc21 (stereo not given) -12%, CCCOc1ccc(-c2cccc(NS(=O)(=O)c3ccccc3)c2)nn1 2.99%, COc1ccccc1C(=O)N1c2ncnn2C2(CCCCC2)[C@@H]2CCCC[C@@H]21 -11.1%, COc1ccc(Cn2c(C(=O)O)c(CNC3CCCC3)c3ccc(OC)cc32)cc1 0.372%, CCn1c(=O)cc(SCC(=O)NCc2cccc(Cl)c2)c2ccccc21 -7.65%, Cc1cc(C)cc(-n2c(C)cc(C(=O)C(=O)Nc3ccccc3F)c2C)c1 -12.2%, CCN1C(=O)c2ccccc2Sc2ccc(NC(=O)N3CCN(c4cc(C)ccc4C)CC3)cc21 -10.8%, CCOC(=O)c1ccc(NC(=O)C(CC)Sc2nc3ccncc3[nH]2)cc1 (stereo not given) -7.34%, CC(C)(C)OC(=O)N1CCC(c2c(C(=O)NCCN3CCc4ccccc4C3)cnn2-c2ccc(F)cc2)CC1 -18.4%, CCCCOc1ccc(C(=O)Nc2ccc(-c3cc4ccccc4oc3=O)cc2)cc1 -7.65%, Cc1ccc(CNC(=O)Nc2cc(C(=O)NCc3ccc(C(C)C)cc3)ccc2N2CCCC2)cc1 -5%, Cc1c(Cl)cccc1NC(=O)c1ccc2c(c1)CCCN2S(C)(=O)=O -33.5%, CC(C)c1ccc(OCC(=O)NCCS(=O)(=O)N2CCN(c3ccc(F)cc3)CC2)cc1 -6.48%, CCOc1ccc(-c2nn(-c3ccccc3)cc2C2NC(=O)NC(C)=C2C(=O)OC(C)C)cc1 (stereo not given) -8.38%, CSc1nc(Nc2ccc(F)cc2)cc(-c2ccccc2)n1 -12.4%, Cc1ccc(-n2cc(C(=O)Oc3ccc(F)cc3)c3ccccc3c2=O)cc1 0.404%, O=C(CC1C(=O)N(c2ccc(F)cc2)C(=O)N1Cc1ccc2c(c1)OCO2)Nc1ccc(Cl)cc1 (stereo not given) -12.8%, Cc1ccc2c(=O)cc(C(=O)Nc3ccc(S(=O)(=O)Nc4onc(C)c4C)cc3)oc2c1C -0.64%, O=C(CSc1oc(-c2ccccc2)nc1S(=O)(=O)c1ccc(Cl)cc1)c1ccccc1 -5.77%, Cc1cc(C)nc(-n2nc(C)c3c2N(Cc2ccccc2)C(=O)CC3c2ccc(Cl)cc2)n1 (stereo not given) -12.6%, Cc1cc(C)cc(OCC(=O)Nc2c(C(=O)c3ccccc3)oc3ccccc23)c1 1.23%, CCC(=O)N1c2ccccc2CC1C(=O)NCc1cc(OC)ccc1OC (stereo not given) -16.1%, O=C(CCn1c(=O)c2cccn2c2cccnc21)Nc1ccccc1C(F)(F)F -7.91%, CCN(C(=O)Cn1c(=O)n(-c2ccccc2)c(=O)c2ccc(C(=O)NCc3ccc4c(c3)OCO4)cc21)c1cccc(C)c1 -11%, Cc1c(Cl)cccc1NS(=O)(=O)c1ccc(-c2cnc(C3CC3)o2)cc1 -8.31%, CCCCCCCCCCCCSCCOCCO -14.6%, CCOc1ccc(NC(=O)c2cc(S(=O)(=O)N3CCc4ccccc43)ccc2F)cc1 -8.09%, CC(C)c1ccc(NC(=O)c2cc(S(=O)(=O)N(C)C3CCCCC3)ccc2F)cc1 -10.3%, CCCCn1cnc2cc(NCc3ccc(OCC)cc3)ccc21 -15.3%, O=C(c1ccc2c(c1)N(Cc1ccccc1F)C(=O)c1ccccc1S2(=O)=O)N1CCN(c2ccccn2)CC1 -18.1%, CCn1cc(S(=O)(=O)c2cccc(C)c2)c(=O)c2cc(F)c(N3CCCC(C)C3)cc21 (stereo not given) -12%, CCOc1ccc(CNC(=O)C2CCCCN2S(=O)(=O)c2ccc(F)cc2)cc1OC (stereo not given) 2.16%, O=C(CCC(=O)c1ccc(F)cc1)Nc1ccc(Cl)cc1 -15.5%, O=C(CSc1n[nH]c(-c2ccccc2Cl)n1)NCc1ccc(F)cc1 3.72%, CCn1c(=O)c2cc(C(=O)NCCCN3CCN(C)CC3)sc2c2ccccc21 -3.33%
